# In the supplement of paper PMC3334620:
# Over roughly 33,000 sequences, “E-score (-0.5 to 0.5)” has its median near -0.012; the highest 2% begin near 0.27. Some of the results follow.
# Target: T1, Vhr1 (UniProt P40522)
# T1 sequence: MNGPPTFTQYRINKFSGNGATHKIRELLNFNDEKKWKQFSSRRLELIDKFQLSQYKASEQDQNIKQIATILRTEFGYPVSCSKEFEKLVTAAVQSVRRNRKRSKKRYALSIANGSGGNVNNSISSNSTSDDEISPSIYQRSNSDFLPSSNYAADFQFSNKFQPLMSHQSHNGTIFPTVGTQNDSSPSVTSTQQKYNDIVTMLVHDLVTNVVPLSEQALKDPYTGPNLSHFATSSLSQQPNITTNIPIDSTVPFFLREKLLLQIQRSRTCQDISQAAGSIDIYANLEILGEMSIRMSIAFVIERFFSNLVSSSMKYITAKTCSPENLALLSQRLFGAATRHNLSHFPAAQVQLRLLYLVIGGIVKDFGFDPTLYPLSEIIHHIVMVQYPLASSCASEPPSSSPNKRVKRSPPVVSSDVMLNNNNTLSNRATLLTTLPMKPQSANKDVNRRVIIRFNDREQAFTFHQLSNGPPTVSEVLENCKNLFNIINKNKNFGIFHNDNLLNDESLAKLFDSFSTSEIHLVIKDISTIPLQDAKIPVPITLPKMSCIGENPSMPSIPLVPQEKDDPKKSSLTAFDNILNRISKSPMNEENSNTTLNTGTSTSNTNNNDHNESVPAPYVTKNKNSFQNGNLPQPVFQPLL
# Test: PBM E-score (8-mer binding enrichment) (E-score (-0.5 to 0.5)); higher = stronger / more preferred TF binding; most listed sequences are background and not binding sites
# Settings: protein concentration: 200 nM; construct: GST-full length
# Experimental: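 Universal 'all 10-mer' protein binding microarrays (Agilent AMADID 015681) probed with GST-tagged S. cerevisiae TFs (full-length or DBD) made by in vitro transcription/translation (PURExpress), about 100-200 nM. Bound TF was detected with fluorescent anti-GST. Each ungapped 8-mer (which stands for itself and its reverse complement) is scored by the PBM enrichment score (E-score), a modified Wilcoxon-Mann-Whitney statistic from -0.5 to +0.5, computed with the Universal PBM Analysis Suite. Scale: above 0.35 generally sequence-specific binding.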
row,Sequence,PBM E-score
1,CCCACCAG,0.123
2,TACGCGAA,-0.048
3,CATGATGA,0.254
4,AAGGCGGT,0.105
5,AGGCTAGG,-0.16
6,TTGCACAA,-0.00471
7,CGATCATC,-0.0167
8,AGCATGTG,0.0322
9,GGAACGTA,-0.191
10,GCATTGCC,-0.161
11,CGCGGAAG,-0.107
12,AATAGTTC,-0.188
13,ACCGGTGC,-0.0686
14,AATAACTC,0.0662
15,CCGCTAAA,-0.195
16,CCCAGCCC,-0.0154
17,AAGTATCG,-0.106
18,GGATCCAA,0.12
19,AAAGTTGC,-0.0908
20,TACCGTCA,-0.0775
21,TAGCTCAA,-0.121
22,AGGGCCCC,-0.138

row,Sequence,PBM E-score
1,TGAGCGCA,-0.167
2,CGCCCAGA,-0.2
3,ACCGTTTG,-0.0651
4,AGGGGTCC,-0.317
5,CCTGGCGA,-0.0108
6,CAACAGGC,-0.141
7,AATCCAGT,-0.0248
8,CCTTAGGA,-0.0162
9,TATTTCAA,-0.0437
10,AGGTCTTG,-0.193
11,AAGGGGGA,-0.138
12,ATTGTATA,0.196
13,TGGCAACA,-0.188
14,CGGAGGAA,-0.243
15,AGGAGGAA,-0.196
16,ACCCAAGT,0.123
17,AACTAGTC,0.185
18,ATACTGGG,-0.0866
19,AACGATCG,-0.022
20,AAGCTTGG,-0.274
21,ACGCCATG,-0.00635
22,CGCTGGTA,-0.103

row,Sequence,PBM E-score
1,AACCACCT,0.0827
2,CACGTCAA,0.0613
3,ATATCCAT,-0.098
4,AATTGGTC,0.00692
5,AGATCTAT,-0.17
6,AGCGTGAC,0.191
7,CAGGAACC,-0.0676
8,CTCTTCCC,0.00832
9,AGCTCTTG,-0.0587
10,ATTAAAGG,-0.078
11,AGTGCTGA,0.0505
12,ACGGCGGC,-0.00545
13,CCCTTACC,-0.128
14,ACGAACCG,-0.0831
15,GAAACTTC,-0.229
16,ATCCGTCC,-0.0202
17,CGGGTACC,0.00404
18,ATTTCCAC,0.16
19,GCCAGGCA,-0.0108
20,CACCCTTA,0.021
21,ACGTCAAA,-0.197
22,GTATGATA,0.185

row,Sequence,PBM E-score
1,AGCCTAAT,-0.225
2,AATATTAA,0.239
3,ATATATGA,0.107
4,AACAACGC,-0.106
5,CGGTCCAG,0.00237
6,ACGCTAGG,-0.0568
7,CTTTCGTA,-0.155
8,GACGTACC,-0.164
9,AGGGTCCC,-0.238
10,ATCCCTGA,0.0173
11,GCGAAGCC,-0.204
12,CCGAAAAG,0.0987
13,GTTCGACA,0.112
14,AGCTTTGG,-0.156
15,AAACAGAT,-0.0763
16,ACGTAATG,0.0488
17,CTGTCTCA,0.043
18,CAATATCC,0.0405
19,CCGGCTCC,0.162
20,AGGGCCAC,-0.107
21,AGTGCGGA,0.147
22,CAGAGCGC,-0.32

row,Sequence,PBM E-score
1,AGATCCAT,0.00405
2,AAAATCGT,-0.0723
3,TAAACTTA,-0.0765
4,CTGTTTCA,-0.0224
5,ATGGGAGA,-0.0548
6,GGAGAACC,-0.225
7,AGGCGCGG,-0.129
8,GTGCCAAC,0.0723
9,CGTCCACC,-0.255
10,AAAACAAT,-0.0254
11,CTCTCAAA,-0.262
12,AAGCTGGT,-0.0746
13,TGAAGCCA,-0.0993
14,ATAACAGC,-0.0189
15,CCACGTTC,-0.0854
16,ATTGCTTG,-0.00443
17,GGTAAGGA,-0.113
18,GCGAGCGC,-0.144
19,GCACTCAC,-0.0104
20,GGCTTAAA,-0.15
21,CATTGGGC,-0.208
22,ATCCTTCA,0.115
